Experimental findings from patent US20240197902A1 (published 2024) are described below.

The labels stand for the following.
T1: BMP9 (UniProt Q9UK05 320-429)
T1 chain: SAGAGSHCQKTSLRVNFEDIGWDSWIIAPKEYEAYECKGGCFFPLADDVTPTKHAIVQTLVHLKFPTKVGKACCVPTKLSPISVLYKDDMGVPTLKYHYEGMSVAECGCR

T2: activin A (UniProt P08476 311-426)
T2 chain: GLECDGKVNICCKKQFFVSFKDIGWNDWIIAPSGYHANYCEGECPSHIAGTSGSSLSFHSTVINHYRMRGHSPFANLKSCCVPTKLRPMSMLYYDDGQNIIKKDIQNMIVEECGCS

T3: BMP10 (UniProt O95393 317-424)
T3 chain: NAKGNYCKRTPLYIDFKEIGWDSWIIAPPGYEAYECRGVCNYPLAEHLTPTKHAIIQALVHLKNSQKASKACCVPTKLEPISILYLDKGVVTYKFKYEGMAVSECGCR

T4: GDF11 (UniProt O95390 299-407)
T4 chain: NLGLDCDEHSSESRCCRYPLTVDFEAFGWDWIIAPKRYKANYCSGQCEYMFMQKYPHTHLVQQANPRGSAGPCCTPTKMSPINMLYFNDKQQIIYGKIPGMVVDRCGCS

T5: activin B (UniProt P09529 293-407)
T5 chain: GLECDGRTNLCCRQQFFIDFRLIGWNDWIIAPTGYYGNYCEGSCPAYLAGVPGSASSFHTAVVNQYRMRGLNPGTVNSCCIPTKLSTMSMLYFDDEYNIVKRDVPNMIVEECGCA

B1: ActRIIa (Fc fusion)
chain: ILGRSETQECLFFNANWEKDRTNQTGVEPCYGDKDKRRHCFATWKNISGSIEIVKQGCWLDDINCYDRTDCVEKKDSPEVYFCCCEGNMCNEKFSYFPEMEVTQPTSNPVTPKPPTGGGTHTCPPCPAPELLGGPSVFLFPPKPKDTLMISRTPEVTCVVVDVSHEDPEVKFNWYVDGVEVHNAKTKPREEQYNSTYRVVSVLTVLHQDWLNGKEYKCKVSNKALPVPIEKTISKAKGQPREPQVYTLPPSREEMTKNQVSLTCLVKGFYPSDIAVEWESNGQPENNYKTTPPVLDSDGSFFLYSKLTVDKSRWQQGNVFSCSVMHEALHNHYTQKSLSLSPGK
modifications: Disulfide-bonded homodimer of this chain; glycosylated CHO product
B2: ActRIIB(L79H)-G1Fc (Fc fusion)
chain: GRGEAETRECIYYNANWELERTNQSGLERCEGEQDKRLHCYASWRNSSGTIELVKKGCWHDDFNCYDRQECVATEENPQVYFCCCEGNFCNERFTHLPEAGGPEVTYEPPPTAPTG[gap - human IgG1 Fc and a few adjoining residues]
modifications: Homodimeric Fc fusion; one copy of the chain given
B3: ActRIIB(L79H-F82K)-G1Fc (Fc fusion)
chain: GRGEAETRECIYYNANWELERTNQSGLERCEGEQDKRLHCYASWRNSSGTIELVKKGCWHDDKNCYDRQECVATEENPQVYFCCCEGNFCNERFTHLPEAGGPEVTYEPPPTAPTG[gap - human IgG1 Fc and a few adjoining residues]
B4: ActRIIB(L79H-F82I)-G1Fc (Fc fusion)
chain: GRGEAETRECIYYNANWELERTNQSGLERCEGEQDKRLHCYASWRNSSGTIELVKKGCWHDDINCYDRQECVATEENPQVYFCCCEGNFCNERFTHLPEAGGPEVTYEPPPTAPTG[gap - human IgG1 Fc and a few adjoining residues]
modifications: Homodimeric Fc fusion; one copy of the chain given
B5: ActRIIB(F82I-N83R)-G1Fc (Fc fusion)
chain: GRGEAETRECIYYNANWELERTNQSGLERCEGEQDKRLHCYASWRNSSGTIELVKKGCWLDDIRCYDRQECVATEENPQVYFCCCEGNFCNERFTHLPEAGGPEVTYEPPPTAPTG[gap - human IgG1 Fc and a few adjoining residues]
modifications: Homodimeric Fc fusion; one copy of the chain given
B6: ActRIIB(F82T-N83R)-G1Fc (Fc fusion)
chain: GRGEAETRECIYYNANWELERTNQSGLERCEGEQDKRLHCYASWRNSSGTIELVKKGCWLDDTRCYDRQECVATEENPQVYFCCCEGNFCNERFTHLPEAGGPEVTYEPPPTAPTG[gap - human IgG1 Fc and a few adjoining residues]
modifications: Homodimeric Fc fusion; one copy of the chain given
B7: ActRIIB(F82K-N83R)-G1Fc (Fc fusion)
chain: GRGEAETRECIYYNANWELERTNQSGLERCEGEQDKRLHCYASWRNSSGTIELVKKGCWLDDKRCYDRQECVATEENPQVYFCCCEGNFCNERFTHLPEAGGPEVTYEPPPTAPTG[gap - human IgG1 Fc and a few adjoining residues]
modifications: Homodimeric Fc fusion; one copy of the chain given
B8: ActRIIA-hFc (Fc fusion)
chain: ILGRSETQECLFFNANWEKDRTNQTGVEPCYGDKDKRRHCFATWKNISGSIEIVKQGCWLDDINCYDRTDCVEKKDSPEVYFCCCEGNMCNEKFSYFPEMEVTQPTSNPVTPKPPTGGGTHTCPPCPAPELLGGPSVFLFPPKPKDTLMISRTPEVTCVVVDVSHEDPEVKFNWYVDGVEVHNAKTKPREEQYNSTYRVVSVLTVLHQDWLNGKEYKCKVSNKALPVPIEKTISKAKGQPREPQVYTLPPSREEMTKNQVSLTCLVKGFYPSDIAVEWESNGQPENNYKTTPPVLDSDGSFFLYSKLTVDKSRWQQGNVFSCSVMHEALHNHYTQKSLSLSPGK
modifications: Disulfide-bonded homodimer of this chain; glycosylated CHO product

The first test concerns the target Activin. As to the kind of experiment: Biacore.
Take B1: binding was put at a Kd of 0.005 nM.

For a further test, the target named is T1, BMP9. In words: SPR; 37 C; transient. (In SPR one partner is held on a chip, and binding of the other changes the refractive index at the surface.)
B2 yielded a Kd of 10.3 nM.

The target of another test is T2, activin A. In words: SPR; 37 C; transient.
Molecule B3 displayed a Kd of 11.7 nM.
The same measure, in the same setting: the result for B4 reads 3.38 nM; that for B2, 9.19 nM.

A further test addresses GDF8 (UniProt O14793 267-375). In words: SPR; 37 C.
UniProt O14793, sequence (O14793 267-375): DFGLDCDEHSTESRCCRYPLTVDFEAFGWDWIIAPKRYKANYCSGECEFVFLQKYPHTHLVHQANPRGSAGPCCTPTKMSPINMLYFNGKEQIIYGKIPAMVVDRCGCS
On to B5, for which the Kd amounted to 1.18 nM.
On the same count and under the same terms, with B3 the figure was 4.02 nM; with B4, 0.328 nM; with B2, 0.151 nM.
Molecule B6 yielded a Kd of 1.46 nM.

Another test concerns the target T3, BMP10. In words: SPR; 37 C.
As to B5, binding was characterised by a dissociation constant (Kd) of 0.0325 nM.
The same measure, in the same setting: the result for B3 reads 0.0858 nM; that for B4, 0.117 nM; that for B2, 0.124 nM.
In the case of B7, binding was characterised by a dissociation constant (Kd) of 0.0119 nM.
On to B6, for which the Kd is 0.0309 nM.

The target in another test is T4, GDF11. As to the kind of experiment: SPR; 37 C.
For B5, binding was put at a Kd of 1.41 nM.
As to B3, the Kd came to 1.65 nM.
B4 yielded a Kd of 0.0861 nM.
Still for that read-out and setting: with B2 the figure was 0.0285 nM; with B6, 0.864 nM.

The target of a further test is T4, GDF11. In words: Biacore.
In turn, B8 returned a Kd of 9.96 nM.

In another test the target is T2, activin A. As to the kind of experiment: SPR; 37 C.
Take B5: binding was put at a Kd of 0.327 nM.
Still for that read-out and setting: the result for B7 reads 0.513 nM; that for B6, 0.2 nM.

In a further test the target is T5, activin B. As to the kind of experiment: SPR; 37 C.
B5 returned a Kd of 0.0073 nM.
Still for that read-out and setting: with B3 the figure was 0.0196 nM; with B4, 0.0158 nM.
Same read-out and setting: with B2 the figure was 0.0169 nM; with B7, 0.0085 nM.
The same measure, in the same setting: the result for B6 reads 0.0109 nM.

A further test concerns the target T1, BMP9. In words: SPR; 37 C.
Turning to B4, the Kd stood at 0.22 nM.
Still for that read-out and setting: the result for B2 reads 0.76 nM.

In the next test the target is T3, BMP10. As to the kind of experiment: SPR; 37 C. This is another data set of the same source.
As for B4, the affinity, expressed as Kd, was 0.11 nM.
B2 had a Kd of 0.12 nM.

In the next test the target is T2, activin A. As to the kind of experiment: SPR; 37 C. The source holds these as a separate data set.
Turning to B4, the Kd is 0.58 nM.
On the same count and under the same terms, the result for B2 reads 0.3 nM.

Another test deals with T4, GDF11. In words: SPR; 37 C. The source holds these as a separate data set.
As for B4, the Kd amounted to 0.064 nM.
Turning to B2, the Kd stood at 0.037 nM.

One may read the Kd as the equilibrium constant for the complex coming apart.
